# Measurements from PubChem BioAssay AID652104 (National Center for Advancing Translational Sciences (NCATS), 2013).
# About 7,200 (1.8%) of roughly 410,000 compounds were called active. This list was built around the results that the source calls inconclusive (neither active nor inactive); the mix of calls is not that of the screen. The call rests on the fitted dose curve; in most records, active means well fitted activation curve with a large enough effect; inconclusive means small, poorly fitted or top-dose-only effect, or another doubt; inactive means no such curve, though single readings can be large or run the other way. Potencies of inconclusive entries are left out as doubtful fits.
# Assay: qHTS of TDP-43 Inhibitors; further: nearly all actives have a fitted effect of over 50% in size; on growth rescue (activation): % of control where 0% means no effect
# Settings: TDP-43 expressing yeast growth rescue, BacTiter-Glo, 24 h; growth rescue (activation): at 46.1 µM (top of the series) unless noted
# Outline: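 Yeast cells expressing TDP-43 under galactose induction are exposed to compounds for 24 hr at 30 deg C. BacTiter-Glo luminescence measures growth, so protective compounds score as activators.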
# Potency means the concentration at half of the fitted maximal effect; tags describe the fitted curve by direction and shape.
Structure (SMILES),Potency,growth rescue (activation)
O=C(COc1ccccc1)Nc1nnc(-c2ccc(F)cc2)o1,"inconclusive [activator, single point]",–
O=C1OC(Cc2ccccc2)C(c2ccccc2)C1=O (stereo unspecified),"inconclusive [activator, partial curve]",–
CC(/C=N/NC(=O)c1cc(-c2cccs2)[nH]n1)=C\c1ccccc1,"inconclusive [activator, partial curve]",–
CSc1ccc(CCNC(=O)c2nn(C)c3c2CS(=O)(=O)c2ccccc2-3)cc1,active: 25.1 µM,–
CC(C)c1ccc(C2c3[nH]c4ccccc4c3C[C@H]3C(=O)N(c4ccccc4C(=O)N4CCC[C@H]4C(=O)O)C(=O)N23)cc1 (stereo partly specified),–,inactive: 13%
CC(C)(C)NC(=O)NC(=O)COC(=O)CNC(=O)C1CCCCC1,–,inactive: 15.4%
CCOC(=O)Cc1csc(NC(=O)c2ccc(Cl)s2)n1,"inconclusive [activator, single point]",–
CCOc1cc(/C=C2/COc3ccccc3C2=O)ccc1OCC(=O)N(C)C,"inconclusive [activator, partial curve]",–
Cc1cccc(N2CCN(C(=O)c3ccnn3C)CC2)c1C,"inconclusive [activator, single point]",–
COc1ccc(-c2oc3ccc(N4CCOCC4)cc3c2C#CC2(O)CCCCC2)cc1,"inconclusive [activator, single point]",–
O=[N+]([O-])c1cnc(Sc2ccncn2)s1,–,inconclusive: -95.3% [activator]
O=C(N/C=N/O)C1=NOC(CNc2ncc(C(F)(F)F)cc2Cl)C1 (stereo unspecified),active: 15.8 µM,–
CCOC(=O)CSc1nc2ccccc2n1CC(=O)NC(C)(C)C,–,inactive: -18.6%
CCOC(=O)c1cnc(NCc2ccc(Cl)cc2)c2ccccc12,"inconclusive [activator, single point]",–
CCOc1ccccc1NC(=O)N1CCC(c2nc3ccc(C)cc3[nH]2)CC1,–,inactive: -27.5%
S=C(NNC(=S)Nc1ccccc1)Nc1ccccc1,"inconclusive [activator, partial curve]",–
CCSc1nc2c(c(=O)n1Cc1ccccc1)SC(C)C2 (stereo unspecified),"inconclusive [activator, single point]",–
CCOC(=O)c1nnsc1Nc1ccc(C)c(C)c1,active: 11.2 µM,–
CCC(=O)N1c2ccc(S(=O)(=O)N3CCN(c4ccccc4Cl)CC3)cc2CC1C (stereo unspecified),active: 35.5 µM,–
Cc1cccc(N(C)c2nc3ccc(C)cc3n3nnnc23)c1,–,inactive: 6.4%
CC1(c2nnnn2Cc2ccccc2)CCC(=O)N1C1CC1 (stereo unspecified),–,inactive: 12.1%
